Results as given in article PMC3618186.
Numbering of substitutions follows the chain as printed. These are yes or no findings as the source states them, for the method shown. Some entries that bind do so weakly or less than the wild type. Values belong to the substance of their own block, whether it stands above or below them.

Chains of the proteins cited; added tags and fusions are not shown. Residues count along the entry.
UniProt P28023, residues 381-530: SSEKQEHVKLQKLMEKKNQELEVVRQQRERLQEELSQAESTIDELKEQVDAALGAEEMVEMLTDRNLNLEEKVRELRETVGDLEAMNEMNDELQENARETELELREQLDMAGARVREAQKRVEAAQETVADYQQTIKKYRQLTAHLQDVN
UniProt P63170: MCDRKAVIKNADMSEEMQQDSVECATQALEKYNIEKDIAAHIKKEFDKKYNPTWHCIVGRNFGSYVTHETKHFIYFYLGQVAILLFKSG

Key:
[1] = molecular target: dynactin p150^Glued coiled-coil 1B (CC1B), residues 381–530 (R. norvegicus) (UniProt P28023); test: native gel or EMSA; native PAGE; purified proteins incubated at 25°C for five minutes in equimolar or two fold molar excess; 12% gels with a stacking gel at pH 7.4 or 8–25% gradient gels; both purified
[2] = molecular target: dynactin p150^Glued coiled-coil 1B (CC1B), residues 381–530 (R. norvegicus) (UniProt P28023); test: SEC; equimolar Pac11-LC8 complex (wild type or R12A,Q13A,L14A) and CC1B, analytical Superdex 75 10/300 GL; fractions checked by SDS-PAGE; both purified
[3] = molecular target: dynactin p150^Glued coiled-coil 1B (CC1B), residues 381–530 (R. norvegicus) (UniProt P28023); test: AUC; sedimentation equilibrium of a complex of p150Glued, Pac11 1-86 and LC8; data not shown; both purified
[4] = molecular target: T1, S. cerevisiae dynein intermediate chain Pac11, residues 1–86, wild type (S. cerevisiae) (UniProt P40960); test: as above
T1 sequence: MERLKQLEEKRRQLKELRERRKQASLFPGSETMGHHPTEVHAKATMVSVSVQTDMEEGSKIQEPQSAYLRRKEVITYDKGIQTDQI

[5] = molecular target: T2, Pac11 1–86 R12A,Q13A,L14A (S. cerevisiae) (UniProt P40960); test: SEC; equimolar Pac11-LC8 complex (wild type or R12A,Q13A,L14A) and CC1B, analytical Superdex 75 10/300 GL; fractions checked by SDS-PAGE; both purified
T2 sequence: T1 sequence with R12A, Q13A, L14A

[6] = molecular target: T1, S. cerevisiae dynein intermediate chain Pac11, residues 1–86, wild type (S. cerevisiae); test: as above
[7] = molecular target: T2, Pac11 1–86 R12A,Q13A,L14A (S. cerevisiae); test: native gel or EMSA; native PAGE; purified proteins incubated at 25°C for five minutes in equimolar or two fold molar excess; 12% gels with a stacking gel at pH 7.4 or 8–25% gradient gels; both purified
[8] = molecular target: T1, S. cerevisiae dynein intermediate chain Pac11, residues 1–86, wild type (S. cerevisiae); test: as above
[9] = molecular target: dynactin p150^Glued coiled-coil 1B (CC1B), residues 381–530 (R. norvegicus) (UniProt P28023); test: AUC; sedimentation equilibrium at a single speed of 25000 rpm at 5, 10, 15, 20 and 25°C; proteins alone and as admixtures, 10 μM each; fit to a single molecular weight; both purified

Substance: Pac11 1–86 L17A,R18A with LC8 (from UniProt P40960 1-86; P63170 1-89) (complex)
binding [1]: binds

Substance: wt-Pac11^1–86-LC8 complex (from UniProt P40960 1-86; P63170 1-89)
binding [3]: binds
binding [2]: binds
binding [1]: binds

Substance: Pac11 1–86 E9A,K10A,R11A with LC8 (from UniProt P40960 1-86; P63170 1-89) (complex)
binding [1]: binds

Substance: dynactin p150^Glued coiled-coil 1B (CC1B), residues 381–530 (from UniProt P28023 381-530) (domain or fragment)
binding [9]: no binding (condition: at temperatures above 13°C)

Substance: Pac11 1–86 Q6A,L7A,E8A with LC8 (from UniProt P40960 1-86; P63170 1-89) (complex)
binding [1]: binds

Further lines, results first:

binding [1]: binds
Substance: Pac11 1–86 E19A,R20A,R21A with LC8 (from UniProt P40960 1-86; P63170 1-89) (complex)

binding [2]: no binding
binding [1]: no binding
Substance: Pac11-R12A,Q13A,L14A(12AAA)-LC8 complex (from UniProt P40960 1-86; P63170 1-89)

binding [4]: binds
binding [5]: binds
binding [6]: binds
binding [7]: binds
binding [8]: binds
Substance: dynein light chain 8 (LC8) (from UniProt P63170 1-89)

binding [1]: binds
Substance: Pac11 1–86 L4A,K5A,Q6A with LC8 (from UniProt P40960 1-86; P63170 1-89) (complex)
